The source of these data is article PMC4336329 (PLoS ONE, 2015).

The structures appear in SMILES notation. The campaign covered roughly 310,000 compounds. About 2,200 (0.71%) showed an effect of 50% or more. Effects have a minus sign here. The list shows a part of the results.

The target in this assay is human ether-à-go-go-related gene (hERG) potassium channel (human, UniProt Q12809). Nature of the assay: primary screen, population patch clamp on CHO cells stably expressing hERG.
Sequence of human ether-à-go-go-related gene (hERG) potassium channel (Q12809 whole entry, looked up): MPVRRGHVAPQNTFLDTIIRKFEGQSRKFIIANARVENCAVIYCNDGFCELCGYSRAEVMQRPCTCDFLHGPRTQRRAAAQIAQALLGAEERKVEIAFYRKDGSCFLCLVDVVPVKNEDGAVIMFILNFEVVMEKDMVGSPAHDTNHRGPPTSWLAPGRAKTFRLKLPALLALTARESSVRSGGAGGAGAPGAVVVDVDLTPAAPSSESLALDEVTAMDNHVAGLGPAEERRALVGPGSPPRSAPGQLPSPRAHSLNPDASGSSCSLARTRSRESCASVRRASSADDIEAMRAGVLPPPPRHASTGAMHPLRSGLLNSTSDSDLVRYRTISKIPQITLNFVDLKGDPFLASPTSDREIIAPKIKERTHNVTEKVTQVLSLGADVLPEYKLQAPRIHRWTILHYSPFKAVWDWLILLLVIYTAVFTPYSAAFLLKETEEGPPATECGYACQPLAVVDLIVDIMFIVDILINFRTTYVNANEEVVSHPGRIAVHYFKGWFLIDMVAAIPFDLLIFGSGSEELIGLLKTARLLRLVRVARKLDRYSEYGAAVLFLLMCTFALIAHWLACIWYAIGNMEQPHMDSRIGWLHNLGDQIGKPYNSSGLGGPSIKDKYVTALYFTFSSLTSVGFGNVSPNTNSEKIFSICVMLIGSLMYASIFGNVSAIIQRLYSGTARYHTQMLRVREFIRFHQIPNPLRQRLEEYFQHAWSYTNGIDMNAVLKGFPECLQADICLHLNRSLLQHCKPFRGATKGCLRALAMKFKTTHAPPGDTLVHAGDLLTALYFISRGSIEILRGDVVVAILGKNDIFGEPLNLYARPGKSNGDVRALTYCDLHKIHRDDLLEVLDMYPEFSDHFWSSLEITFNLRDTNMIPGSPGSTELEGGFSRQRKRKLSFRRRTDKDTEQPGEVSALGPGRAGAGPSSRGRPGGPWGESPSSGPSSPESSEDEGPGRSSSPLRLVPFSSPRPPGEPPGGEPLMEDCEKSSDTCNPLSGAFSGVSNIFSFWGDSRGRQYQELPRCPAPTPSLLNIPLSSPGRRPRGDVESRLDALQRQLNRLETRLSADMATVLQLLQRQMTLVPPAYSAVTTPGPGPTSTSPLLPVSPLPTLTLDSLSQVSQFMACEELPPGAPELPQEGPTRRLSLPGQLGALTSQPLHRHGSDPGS
Consider `CCOC(=O)CSc1nnc(-c2ccc(NS(=O)(=O)c3ccc(C)cc3)cc2)o1`, for which the “hERG current change (%, negative = inhibition) at 1uM” value is given as -9.7%.
With `COc1ccc(C2CC(c3cccs3)=NN2C(=O)COC(=O)c2cncc(Br)c2)cc1OC` (centres unmarked) the figure was -0.627%.
With `CCCSc1nc2c(c(=O)[nH]c(=O)n2C)n1C` the figure was 6.05%.
In the case of `CCC(CC)c1nnc(NC(=O)c2ccc(N3CCCC3=O)cc2)s1` it was 1.43%; in that of `CN(CC(=O)Nc1cccc(F)c1)C(=O)c1csc2c1CCCC2`, 18.7%; in that of `Cc1ccc(NC(=O)NC2CC(=O)N(c3ccc4c(c3)OCCO4)C2)cc1F` (centres unmarked), 4.84%.
As for `N#CCCN(C(=O)COC(=O)C1=NNC(=O)CC1)c1ccccc1`, the “hERG current change (%, negative = inhibition) at 1uM” value worked out at 9.89%.
Turning to `COc1ccc(S(=O)(=O)Nc2ccc(S(=O)(=O)N3CCOCC3)cc2)cc1`, the “hERG current change (%, negative = inhibition) at 1uM” value is listed as 3.14%.
With `CCOc1cc(CN2CCSCC2)ccc1O` the figure was 5.37%; with `c1ccc(OCCOc2cccc3cccnc23)cc1`, 10.7%; with `CC(C)(C)NS(=O)(=O)c1ccc(NC(=O)C2CCCO2)cc1` (centres unmarked), 11.8%.
As for `CN1C(=O)CC(N2CCN(c3ccc(Cl)cc3)CC2)C1=O` (centres unmarked), the “hERG current change (%, negative = inhibition) at 1uM” value is given as -1.86%.
Turning to `Cc1ccc(OCC(=O)Nc2ccc(C)c(S(=O)(=O)N3CCCCCC3)c2)c([N+](=O)[O-])n1`, the “hERG current change (%, negative = inhibition) at 1uM” value is reported as -7.57%.
With `CCOc1ccc(CCNC(=O)c2cc(S(=O)(=O)N3CCOCC3)ccc2C)cc1OCC` the figure was 11.8%.
With `COc1ccc2c(c1)C(C)=CC(C)(C)N2S(=O)(=O)c1ccc(C)cc1` the figure was 10.6%; with `COc1ccc(OC)c(C2CC(=O)OC3=C2C(=O)CC(C)(C)C3)c1` (centres unmarked), 7.47%.
With `O=S(=O)(c1ccc(F)cc1)N1CC=C(c2ccccc2)CC1` the figure was 10.8%; with `COc1ccc(NC(=O)c2ccc(CNS(=O)(=O)c3cccc(OC)c3)cc2)cc1`, 0.0207%.
As to `COC(=O)c1cccc(NC(=O)CSc2nnc(-c3ccco3)o2)c1`, the “hERG current change (%, negative = inhibition) at 1uM” value is listed as 15.6%.
In the case of `Cc1cc(C(=O)CN2c3cccc4cccc(c34)S2(=O)=O)c(C)n1C`, the “hERG current change (%, negative = inhibition) at 1uM” value is given as 5.47%.
With `O=C(CCNS(=O)(=O)c1ccccc1F)NCc1ccc2c(c1)OCO2` the figure was 9.88%; with `Cc1ccc2cc(NC(=O)c3ccc(C(C)(C)C)cc3)ccc2n1`, 16.1%; with `COc1ccc(CCNc2cc(N3CCN(C(=O)c4ccccc4OC)CC3)ccc2[N+](=O)[O-])cc1OC`, 9.91%.
With `COc1ccc(CCNc2c([N+](=O)[O-])ncn2C)cc1OC` the figure was 15.3%.
With `CCOC(=O)Cc1csc(SCC(=O)c2c(N)n(CC(C)C)c(=O)n(C)c2=O)n1` the figure was 5.54%.
In the case of `Cc1ccc(S(=O)(=O)NNC(=O)CCC(=O)Nc2ccc(C)cc2C)cc1`, the “hERG current change (%, negative = inhibition) at 1uM” value amounted to 8.19%.
In the case of `COc1ccc(C(=O)CN(C(=O)c2ccc(Cl)cc2)N2C(=O)c3ccccc3C2=O)cc1` it was -2.12%; in that of `c1ccc(Cc2nnc3sc(-c4ccccn4)nn23)cc1`, -0.519%.
In the case of `O=C(NC(=S)NCC1CCCO1)c1ccccc1[N+](=O)[O-]` (centres unmarked) it was 19.8%.
In the case of `CC(=O)Nc1cccc(N2C(=O)CC(Cc3ccccc3)C2=O)c1` (centres unmarked) it was 2.44%; in that of `COc1ccc(C(=O)NNC(=O)CN(C)S(=O)(=O)c2ccc(Cl)cc2)c(OC)c1OC`, -28.3%.
Consider `Cc1cccn2c(CNCCc3ccccn3)c(C(=O)N3CCOCC3)nc12`, for which the “hERG current change (%, negative = inhibition) at 1uM” value is reported as 6.02%.
With `COC(=O)c1c(C)cc(O)c(C)c1O` the figure was 13.1%; with `COC(=O)c1sccc1NC(=O)c1ccc(C)cc1`, 15%; with `Cc1ccc(C(=O)NCCc2cc3ccc(C)c(C)c3[nH]c2=O)cc1[N+](=O)[O-]`, -8.17%.
As for `O=C1CCCC(O)=C1C=Nc1ccc(O)cc1`, the “hERG current change (%, negative = inhibition) at 1uM” value was 14.1%.
With `COc1ccc2c(c1)cc1c(=O)n(CC(=O)NCCCN3CCOCC3)nc(C)n12` the figure was 12.7%; with `Cl.N=c1ccn(Cc2ccccc2Cl)cc1`, 16.8%.
With `Cc1[nH]c2ccccc2c1CN1CCN(c2ccccn2)CC1` the figure was -5.15%.
With `CCC(Oc1ccccc1)C(=O)Nc1cc(C(F)(F)F)ccc1N1CCOCC1` (centres unmarked) the figure was 17.8%; with `Cc1[nH]ccc(=O)c1OCC(=O)O`, 14.5%; with `CCOc1ccc(S(=O)(=O)N2CCC(C(=O)OC(C)C(=O)NC3CCCCC3C)CC2)cc1` (centres unmarked), 2.81%.
As for `COC(=O)C1=C(NC(=O)c2ccc(Br)cc2)CCS1`, the “hERG current change (%, negative = inhibition) at 1uM” value stood at 8.99%.
With `Cc1ccc(NC(=O)CNc2ccc(N3CCOCC3)cc2)cc1S(=O)(=O)N(C)C` the figure was -3.53%.
